Hit rate of the full screen: of about 310,000 compounds, about 14,000 (4.5%) showed an effect of 50% or more. Effects have a minus sign here. Some of the results follow.
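Also: peak tail current of the secondary pulse compared with the same well before compound.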

The target in the assay is human ether-à-go-go-related gene (hERG) potassium channel (human, UniProt Q12809). The assay can be described thus: primary screen, population patch clamp on CHO cells stably expressing hERG.
Sequence of human ether-à-go-go-related gene (hERG) potassium channel (Q12809 whole entry, looked up): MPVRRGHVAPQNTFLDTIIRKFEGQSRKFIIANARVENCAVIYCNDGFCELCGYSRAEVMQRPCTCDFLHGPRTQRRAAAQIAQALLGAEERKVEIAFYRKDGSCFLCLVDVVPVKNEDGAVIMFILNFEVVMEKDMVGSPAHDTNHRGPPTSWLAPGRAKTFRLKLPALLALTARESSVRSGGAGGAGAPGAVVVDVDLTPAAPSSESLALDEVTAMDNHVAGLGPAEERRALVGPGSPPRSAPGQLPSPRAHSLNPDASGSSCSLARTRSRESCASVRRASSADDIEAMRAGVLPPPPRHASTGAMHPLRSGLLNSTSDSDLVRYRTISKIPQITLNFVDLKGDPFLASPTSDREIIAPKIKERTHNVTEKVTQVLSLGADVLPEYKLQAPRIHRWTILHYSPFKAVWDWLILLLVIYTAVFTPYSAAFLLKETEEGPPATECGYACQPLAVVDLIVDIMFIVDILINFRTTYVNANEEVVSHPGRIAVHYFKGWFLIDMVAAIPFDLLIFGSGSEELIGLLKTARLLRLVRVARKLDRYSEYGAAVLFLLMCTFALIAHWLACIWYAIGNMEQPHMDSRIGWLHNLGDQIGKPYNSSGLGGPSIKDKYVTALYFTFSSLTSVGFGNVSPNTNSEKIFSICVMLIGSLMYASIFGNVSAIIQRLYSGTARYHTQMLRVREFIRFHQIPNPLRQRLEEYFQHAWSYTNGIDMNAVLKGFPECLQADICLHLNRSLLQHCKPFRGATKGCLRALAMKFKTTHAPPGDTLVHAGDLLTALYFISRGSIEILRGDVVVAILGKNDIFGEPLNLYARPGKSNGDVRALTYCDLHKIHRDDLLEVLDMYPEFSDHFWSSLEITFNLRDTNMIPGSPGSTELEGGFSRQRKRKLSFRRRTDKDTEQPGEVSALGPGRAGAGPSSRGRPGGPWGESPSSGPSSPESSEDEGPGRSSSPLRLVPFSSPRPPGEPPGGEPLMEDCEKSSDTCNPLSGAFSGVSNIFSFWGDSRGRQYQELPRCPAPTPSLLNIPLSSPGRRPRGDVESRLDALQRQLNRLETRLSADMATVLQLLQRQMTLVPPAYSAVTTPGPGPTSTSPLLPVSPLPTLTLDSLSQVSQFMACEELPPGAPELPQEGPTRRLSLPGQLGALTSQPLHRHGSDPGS
For `CNS(=O)(=O)Cc1ccc2[nH]cc(CCN(C)C)c2c1.O=C(O)CCC(=O)O`, the “hERG current change (%, negative = inhibition) at 10uM” value was -1.48%.

With `COc1cc(CN2CCN(CCCc3ccccc3)CC2CCO)cc(OC)c1` (stereo not drawn), the “hERG current change (%, negative = inhibition) at 10uM” value was -71.1%.

Regarding `O=c1[nH]c(=S)n(-c2ccccc2)c(O)c1/C=N/N1CCCCC1c1cccnc1` (stereo not drawn), the “hERG current change (%, negative = inhibition) at 10uM” value is given as -9.96%.

On to `CCSC(=S)Nc1c(C)n(C)n(-c2ccccc2)c1=O`, for which the “hERG current change (%, negative = inhibition) at 10uM” value stood at 11.7%.

For the molecule `CCNC(=S)Nc1ccc(-c2nc3ccccc3[nH]2)cc1`, the “hERG current change (%, negative = inhibition) at 10uM” value is reported as -17.3%.

Take `COc1ccc(OC)c(Nc2nc(-c3cccs3)cs2)c1`: the “hERG current change (%, negative = inhibition) at 10uM” value was -5.13%.

`COc1ccc(OCc2nn3c(-c4ccco4)nnc3s2)cc1`: the “hERG current change (%, negative = inhibition) at 10uM” value was -36.6%.

Regarding `Cc1ccnc(N2C(=O)OC(C)(C)C2(C)O)c1` (stereo not drawn), the “hERG current change (%, negative = inhibition) at 10uM” value was found to be 0.00718%.

Regarding `N/C(=N\c1nc(CSc2nc3ccccc3s2)cc(=O)[nH]1)Nc1ccc(F)cc1`, the “hERG current change (%, negative = inhibition) at 10uM” value is recorded as 8.33%.

For the molecule `CCNC(=O)C(C)Sc1ccc(Cl)cc1` (stereo not drawn), the “hERG current change (%, negative = inhibition) at 10uM” value worked out at 4.22%.

Take `CCCS(=O)(=O)c1c(S(=O)(=O)CCC)c2c3ccccc3ccn2c1C(N)=O`: the “hERG current change (%, negative = inhibition) at 10uM” value is -18.7%.

In the case of `COc1ccc(NC(=O)NC2CCCc3ccccc32)cc1OC` (stereo not drawn), the “hERG current change (%, negative = inhibition) at 10uM” value stood at 9.56%.

As for `O=C1CCc2cc(S(=O)(=O)N3CCC(C(=O)NCc4ccccn4)CC3)ccc2N1`, the “hERG current change (%, negative = inhibition) at 10uM” value is reported as 16.9%.

Consider `NC(=NCCc1c[nH]c2ccccc12)NS(=O)(=O)c1ccc2ccccc2c1`, for which the “hERG current change (%, negative = inhibition) at 10uM” value was determined as 14.8%.

`Cc1ccc2c(c1)sc1ncc(NC(=O)c3ccc(F)cc3)c(=O)n12`: the “hERG current change (%, negative = inhibition) at 10uM” value was found to be 12.7%.

For the molecule `COCc1cc(=O)[nH]c(SCC(=O)N2CCOCC2)n1`, the “hERG current change (%, negative = inhibition) at 10uM” value is 24%.

As to `Cc1cc(NC(=O)c2noc3c2CCCC3)n(-c2ccccc2)n1`, the “hERG current change (%, negative = inhibition) at 10uM” value is given as -20.4%.

As for `O=C(Nc1ccc(Cl)c(C(F)(F)F)c1)C1CCCN(S(=O)(=O)c2cnc[nH]2)C1` (stereo not drawn), the “hERG current change (%, negative = inhibition) at 10uM” value is -16%.

With `COc1cccc(CN2CCNC(=O)C2CC(=O)NCCN2CCOCC2)c1OC` (stereo not drawn), the “hERG current change (%, negative = inhibition) at 10uM” value is -2.05%.

Turning to `COc1ccc(C(=O)N=c2sc3c(C)ccc(OC)c3n2C)cc1`, the “hERG current change (%, negative = inhibition) at 10uM” value is listed as 6.32%.

On to `CO/N=C(\C)c1ncc(C(F)(F)F)cc1N1CCOCC1`, for which the “hERG current change (%, negative = inhibition) at 10uM” value stood at 25.9%.

For `COc1cc2c(cc1NC(=O)CSc1ccc(C)cc1)oc1ccccc12`, the “hERG current change (%, negative = inhibition) at 10uM” value was -5.57%.

For `Cc1ccc(C)c(C(C)NC(=O)CC#N)c1` (stereo not drawn), the “hERG current change (%, negative = inhibition) at 10uM” value is recorded as 11.5%.

Take `O=C(Oc1c(-c2ccco2)oc2ccccc2c1=O)c1cccnc1`: the “hERG current change (%, negative = inhibition) at 10uM” value was 8.68%.

As to `O=C(Nc1cccnc1)c1ccc(Cl)cc1[N+](=O)[O-]`, the “hERG current change (%, negative = inhibition) at 10uM” value was determined as 8.31%.

As for `Cc1ccc(C)c(N2C(=O)CC(Cc3ccc(Cl)cc3)C2=O)c1` (stereo not drawn), the “hERG current change (%, negative = inhibition) at 10uM” value was -4.11%.

Turning to `CN(C(=S)NC(=O)c1ccccc1)c1c(N)n(Cc2ccccc2)c(=O)[nH]c1=O`, the “hERG current change (%, negative = inhibition) at 10uM” value stood at 0.51%.

Regarding `Cc1ccccc1CSc1ncc(C#N)c(N)n1`, the “hERG current change (%, negative = inhibition) at 10uM” value is given as -3.68%.

Take `c1ccc(C2=Nn3c(nnc3-c3cccs3)SC2)cc1`: the “hERG current change (%, negative = inhibition) at 10uM” value is given as 3.43%.

For `Cc1cccc(C2=NNC(=O)C(c3ccc(Cl)cc3)C2)c1` (stereo not drawn), the “hERG current change (%, negative = inhibition) at 10uM” value is 3.78%.

Consider `COc1ccc(C(CN(C)C)C2(O)CCCCC2)cc1.Cl` (stereo not drawn), for which the “hERG current change (%, negative = inhibition) at 10uM” value is on record as -4.05%.

On to `Cc1cccc(NC(=O)CSc2nc3ccccc3c3nc(CCc4c(C)n[nH]c4C)nn23)c1`, for which the “hERG current change (%, negative = inhibition) at 10uM” value is -9.44%.

In the case of `Cc1nnc(SCC(=O)N/N=C/c2ccc(-c3ccc(C)c(Cl)c3)o2)s1`, the “hERG current change (%, negative = inhibition) at 10uM” value is -1.51%.

With `Cc1ccc(-n2c(SCC(=O)NCCN3C(=O)CSC3=O)nnc2-c2cccc(C)c2)cc1`, the “hERG current change (%, negative = inhibition) at 10uM” value is -42%.

On to `CN(C)c1cccc(N=C2C=C(N3CCOCC3)CC(C)(C)C2)c1`, for which the “hERG current change (%, negative = inhibition) at 10uM” value was -60.5%.

Turning to `CCN(CC(=O)NCc1cccs1)S(=O)(=O)c1ccc(C(C)C)cc1`, the “hERG current change (%, negative = inhibition) at 10uM” value is recorded as -53.3%.

In the case of `Cc1nn(CC(=O)NC(C)C)c(C)c1[N+](=O)[O-]`, the “hERG current change (%, negative = inhibition) at 10uM” value is 3.85%.

Turning to `CCOC(=O)c1nc(S(C)(=O)=O)ncc1Cl`, the “hERG current change (%, negative = inhibition) at 10uM” value is reported as 9.56%.

For `Cc1cccc(NC(=O)C2CCN(S(=O)(=O)c3ccc4c(c3)OCCCO4)CC2)n1`, the “hERG current change (%, negative = inhibition) at 10uM” value was -17.3%.

For `Cc1ccc2c(c1)N(C(=O)CCC(=O)NC1CCCCCC1)CC(C)O2` (stereo not drawn), the “hERG current change (%, negative = inhibition) at 10uM” value was -18.5%.

As to `O=C(CSCc1ccc(Cl)cc1Cl)Nc1ccccc1C(=O)Nc1ccc(C(=O)O)cc1`, the “hERG current change (%, negative = inhibition) at 10uM” value came to 10.3%.

As for `COc1cccc(-c2nc(CS(=O)(=O)CC(=O)NC3CCC(C)CC3)c(C)o2)c1` (stereo not drawn), the “hERG current change (%, negative = inhibition) at 10uM” value is given as -15.9%.

`COC(=O)CNC(=O)COC(=O)c1cc(SC)ccc1Cl`: the “hERG current change (%, negative = inhibition) at 10uM” value amounted to 20.9%.

On to `Cc1cccc(-n2nc3c(c2NC(=O)CCC2CCCCC2)CS(=O)C3)c1C` (stereo not drawn), for which the “hERG current change (%, negative = inhibition) at 10uM” value is -10.2%.

On to `Br.CCSC1=NCN(CCCC(=O)O)CN1`, for which the “hERG current change (%, negative = inhibition) at 10uM” value came to 10.9%.

For the molecule `CCCCn1c(N)c(N(C)C(=O)c2ccccc2Oc2ccccc2)c(=O)[nH]c1=O`, the “hERG current change (%, negative = inhibition) at 10uM” value stood at 8.41%.

As to `CCC1Oc2ccc(C)cc2N(CC(=O)NCC2CCCO2)C1=O` (stereo not drawn), the “hERG current change (%, negative = inhibition) at 10uM” value worked out at 12.5%.

For the molecule `O=C(Nc1nc2nc(-c3ccccc3)cc(-c3ccccc3)n2n1)c1ccco1`, the “hERG current change (%, negative = inhibition) at 10uM” value is -44.8%.

As to `CCCCn1c(N)c(N(CCOC)C(=O)COC(=O)CCOc2ccccc2C)c(=O)[nH]c1=O`, the “hERG current change (%, negative = inhibition) at 10uM” value came out at 21.4%.

Regarding `NS(=O)(=O)c1ccc(CCNC(=O)CNC(=O)Cc2cccc3ccccc23)cc1`, the “hERG current change (%, negative = inhibition) at 10uM” value is 28.5%.

For the molecule `O=C(O)c1ccccc1P(=O)(c1ccccc1)c1ccccc1`, the “hERG current change (%, negative = inhibition) at 10uM” value came to 12.9%.

For the molecule `CCOc1ccc(N(CC(=O)Nc2cccc(OC)c2)S(C)(=O)=O)cc1`, the “hERG current change (%, negative = inhibition) at 10uM” value is reported as -1.16%.

For the molecule `CCCCOc1c(Br)cc(/C=C2\N=C(C)OC2=O)cc1OCC`, the “hERG current change (%, negative = inhibition) at 10uM” value is 6.14%.

Regarding `COc1ccc(-c2cc(OC(=O)c3ccc(F)cc3)c3c(C)oc(C)c3c(=O)c2)cc1`, the “hERG current change (%, negative = inhibition) at 10uM” value is recorded as 4.01%.

`Cc1onc(-c2c(F)cccc2Cl)c1C(=O)NCCCN1CCOCC1`: the “hERG current change (%, negative = inhibition) at 10uM” value came out at 1.76%.

On to `COc1ccc(N2CCN(C(=O)c3ccc(CNS(=O)(=O)c4cc(C)ccc4C)cc3)CC2)cc1`, for which the “hERG current change (%, negative = inhibition) at 10uM” value is -11%.

Turning to `NS(=O)(=O)c1ccc(CCNC(=O)NC23CC4CC(CC(C4)C2)C3)cc1`, the “hERG current change (%, negative = inhibition) at 10uM” value is 0.713%.

The values above are taken from publication PMC4336329 (PLoS ONE, 2015).
